# Test results: ChEMBL document CHEMBL4888484, “Replenishing the malaria drug discovery pipeline: Screening and hit evaluation of the MMV Hit Generation Library 1 (HGL1) against asexual blood stage Plasmodium falciparum ,using a nano luciferase reporter read-out” (2022)
# Out of some 150,000 compounds screened, about 540 (0.36%) showed an effect of 50% or more. Some of the results follow.
# Test system: Plasmodium falciparum
# Assay: Primary screen in NF54 nanoGlo assay, in single point, at 2uM, 72h; a lower Z score goes with more inhibition
# Type: functional, Erythrocyte
# Conditions: timepoint 72 hour
Structure (SMILES),% Inhibition [%],Z score
CCc1cc(C#N)ccc1NC(=O)N(C)C1CCS(=O)(=O)CC1,-10,1.96
CCCc1[nH]nc(-c2cccs2)c1NC(=O)c1ccc(F)cc1F,0,-0.02
O=c1ccc(-c2ccc(S(=O)(=O)Nc3cccc(Cl)c3)o2)n[nH]1,15,-1.74
O=C(NCc1nc2c(s1)CCCC2)Nc1cnc2c(c1)COCC2,-1,0.16
CCOC1CC(O)(CNC(C)c2ccccn2)C1(C)C (stereo unspecified),-9,1.02
CCN(CC1CCOCC1)c1nc(C)nc2oc(C)nc12,-10,1.81
CC(C)N(Cc1nccn1C)C(=O)c1cn(CC2CCCCC2)nn1,-5,0.72
Cc1sc2nc(-c3ccccn3)nc(NCC(=O)N3CCC(O)CC3)c2c1-c1ccccc1,25,-2.12
CCc1cnc(CC(=O)N2CCC(=O)N3CCC[C@@H]32)[nH]1,6,-1.27
Cc1n[nH]cc1CN(C)[C@@H](C)C(=O)Nc1ccccn1,6,-0.61
CCN(Cc1cccnc1)C(=O)C(=O)c1ccccc1,21,-1.99
CC(C)CCOc1cccc(CCNC(=O)N2CC[C@H](N(C)C)[C@@H](O)C2)c1,-9,1.58
COc1cc(Cl)c(C)cc1NC(=O)c1cnn(-c2ccccc2)c1C1CCN(C(=O)OC(C)(C)C)CC1,2,-0.34
CC(C)(C)OCc1cc(C(=O)N[C@H]2COCC2(C)C)no1,4,-0.72
CCn1ncc(NC(=O)c2ccccc2OC)c(N2CCCCC2)c1=O,-10,1.99
CC[C@@H](CO)NCc1ccc(OC)c(OC)c1,-6,1.06
C#CCCC1(CCC(=O)N2CCN(c3ccccn3)CC2)N=N1,-3,0.31
COC(=O)CCNC(=O)c1ccc(N)cc1,-8,1.11
Cc1cccc(-c2noc(-c3cccnc3NCc3ccccn3)n2)c1,28,-3.27
CCc1cccc2c1NC(=O)C21NC(CCC(N)=O)[C@H]2C(=O)N(CCc3ccccc3)C(=O)[C@H]21 (stereo partly specified),-4,0.32
NS(=O)(=O)N1CCC(CNC(=O)C2CCCCC2)CC1,-4,0.51
Fc1ccc(CN2C[C@@H](F)[C@@H](OCc3nc4ccccc4o3)C2)cc1,0,-0.07
Cc1ccc(C)c(-c2nn(CN3CCN(c4cccc(C(F)(F)F)c4)CC3)c(=O)c3ccccc23)c1,2,-0.34
